# Source: publication PMC13083723 (Patterns, 2026)
# Among all 5,400 compounds or so, about 190 (3.5%) showed an effect of 50% or more. The list shows a part of the results.
# Tested on: Vero-E6
# Assay: primary screen, phospholipidosis by LipidTOX staining; higher = more effect of the substance
# Details: 10 µM
# Outline: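 Drug-induced phospholipidosis detected with HCS LipidTOX Red reagent in Vero-E6 cells. Compounds tested at 10 μM, with amiodarone (10 μM) as positive control and DMSO (0.1 v/v %) as vehicle.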
row,SMILES,result_ITMP [%]
1,Cc1ccccc1N1CCN(CCc2nnc3n2CCCC3)CC1,-0.76
2,CSc1nc2cc(Cl)c(Oc3cccc(Cl)c3Cl)cc2[nH]1,-2.53
3,Cc1nc2ccccn2c(=O)c1CCN1CCC(C(=O)c2ccc(F)cc2)CC1,-6.13
4,Nc1ccc(-c2ccc3ncc4ccc(=O)n(-c5cccc(C(F)(F)F)c5)c4c3c2)cn1,9.27
5,N#C/C(=C1/SCC(c2ccccc2Cl)S1)n1ccnc1 (stereo not shown),0.65
6,COc1ccc2[n-]c([S@@](=O)Cc3ncc(C)c(OC)c3C)nc2c1,-8.87
7,CCCCC[C@H](O)/C=C/[C@H]1[C@H](O)CC(=O)[C@@H]1C/C=C\CCCC(=O)O,-1.87
8,Cn1cnc2c(F)c(Nc3ccc(Br)cc3F)c(C(=O)NOCCO)cc21,12.3
9,C#Cc1cccc(Nc2ncnc3cc(OCCOC)c(OCCO)cc23)c1,20.2
10,CC[C@H](CC#N)OC(=O)N[C@@H](C)c1cccc(NC(=O)Nc2ccc(-c3cnco3)c(OC)c2)c1,-2.01
11,Nc1nc(N)c(N=O)c(OCC2CCCCC2)n1,-4.05
12,CO[C@@H]1[C@H](OC(=O)/C=C/C=C/C=C/C=C/C(=O)O)CC[C@]2(CO2)[C@H]1[C@@]1(C)O[C@@H]1CC=C(C)C,10.7
13,NC(=O)c1cnccn1,-3.14
14,CC(C)(C)CC(C)(C)c1cc(Cc2cc(C(C)(C)CC(C)(C)C)cc(-n3nc4ccccc4n3)c2O)c(O)c(-n2nc3ccccc3n2)c1,9.42
15,FC(F)(F)c1cc(NC(=S)Nc2ccc(Br)cc2-c2nnn[nH]2)cc(C(F)(F)F)c1,-0.44
16,NCCCC[C@H](NC(=O)[C@@H](Cc1cc(Br)c(O)c(Br)c1)NC(=O)N1CCC(N2Cc3ccccc3NC2=O)CC1)C(=O)N1CCN(c2ccncc2)CC1,0.57
17,Cc1ccc(NC(=O)C2(c3ccc4c(c3)OC(F)(F)O4)CC2)nc1-c1cccc(C(=O)O)c1,-7.5
18,Nc1nc(=O)n([C@H]2C[C@H](O)[C@@H](CO)O2)cc1Cl,-4.04
19,CNC(=O)c1ccc(Nc2ncc(C(F)(F)F)c(NCc3nccnc3N(C)S(C)(=O)=O)n2)cc1,1.87
20,CCOC(=O)[C@@H](N)CCC(=O)N[C@@H](CSCc1ccccc1)C(=O)N[C@@H](C(=O)OCC)c1ccccc1,-1.89
21,Cc1c(O)c(=O)n(-c2ccccc2)n1C,-4.93
22,C=C1CC/C=C(\C)CC[C@@H]2[C@@H]1CC2(C)C,-2.44

row,SMILES,result_ITMP [%]
1,CC(C)OC(=O)C(C)(C)Oc1ccc(C(=O)c2ccc(Cl)cc2)cc1,0.11
2,OCCOc1ccc(/C(=C(/CCCl)c2ccccc2)c2ccccc2)cc1,-2.96
3,COc1cc2c(NC3CCN(C)CC3)nc(N3CCCN(C)CC3)nc2cc1OCCCN(C)C,-1.66
4,NS(=O)(=O)c1ccc(S(=O)(=O)Nc2cccc3c(Cl)c[nH]c23)cc1,5.99
5,CCN(CC)CCOc1ccc(Nc2ncc3cc(-c4c(Cl)cccc4Cl)c(=O)n(C)c3n2)cc1,24.2
6,CCn1c(-c2nonc2N)nc2c(C#CC(C)(C)O)ncc(OC[C@H]3CCCNC3)c21,-4.28
7,COc1cc(N)c(Cl)cc1C(=O)N[C@@H]1CCN(CCCOc2ccc(F)cc2)C[C@@H]1OC (racemic),6.26
8,NC(=O)CC[C@H](N)C(=O)O,-2.87
9,O=C1c2ccccc2C(=O)C1c1ccc(Br)cc1,-6.58
10,Cc1cc2c(s1)Nc1ccccc1N=C2N1CCN(C)CC1,-8.9
11,Cc1cc(C(=O)O)sc1C(N)C(=O)O (stereo not shown),0.29
12,NC(=O)C(c1ccccc1)(c1ccccc1)C1CCN(CCc2ccc3c(c2)CCO3)C1 (stereo not shown),22.4
13,Cn1c(-c2ccccc2)nnc1S(C)(=O)=O,-3.26
14,CN1C(=O)C(Cc2c[nH]c3ccccc23)NC1=S (stereo not shown),-3.91
15,CCC[C@H](N[C@H]1CCc2cc(F)cc(F)c2C1)C(=O)Nc1cn(C(C)(C)CNCC(C)(C)C)cn1,2.75
16,CCOC(=S)SSC(=S)OCC,-5.5
17,C/C(=C\c1csc(C)n1)[C@@H]1C[C@@H]2O[C@]2(C)CCC[C@H](C)[C@H](O)[C@@H](C)C(=O)C(C)(C)[C@@H](O)CC(=O)O1,6.43
18,Oc1cccc(O)c1,-3.42
19,C[C@@H](O[C@H]1OCCN(Cc2n[nH]c(=O)[nH]2)[C@H]1c1ccc(F)cc1)c1cc(C(F)(F)F)cc(C(F)(F)F)c1,2.55
20,O=C(NCCCCN1CCN(c2cccc(Cl)c2Cl)CC1)c1ccc2c(c1)Cc1ccccc1-2,24.3
21,CC(Cc1ccc(O)cc1)NCC(O)c1cc(O)cc(O)c1 (stereo not shown),-1.14
22,CCCCN(CCCC)CC(O)c1cc(Cl)cc2c1-c1ccc(Cl)cc1/C2=C/c1ccc(Cl)cc1 (stereo not shown),-0.63

row,SMILES,result_ITMP [%]
1,Cc1cn(-c2cc(NC(=O)c3ccc(C)c(Nc4nccc(-c5cccnc5)n4)c3)cc(C(F)(F)F)c2)cn1,-4.08
2,CC1(C)CCC(C)(C)c2c1cc(C(=O)Nc1cc(F)c(C(=O)O)c(F)c1)c(O)c2Cl,-2.47
3,Cc1cc(O)cc(C)c1Cl,-1.23
4,CCCNC(=O)Nc1ccc(Oc2ncnc3cc(OC)c(OC)cc23)cc1Cl,-5.8
5,COC(=O)CCC(=O)CN,-4.09
6,O=C(NCc1ccccn1)Nc1nnc(-c2ccco2)o1,-4.85
7,CN(C)C(=O)C(=O)c1cn(C)c2cc(Cl)c(C(=O)N3CCC(Cc4ccc(F)cc4)CC3)cc12,-2.38
8,Cc1cc(N2CCOCC2)ccc1Nc1nc(NC2CCCCC2)c2nc[nH]c2n1,0.21
9,C/C=C/c1cc(OC)c(OC)cc1OC,-1.85
10,O=C(O)c1ccccc1S,-3.45
11,CCN1C[C@H](C)n2c(c(O)c3c(=O)n(Cc4ccc(F)c(Cl)c4)nc(C(=O)NC)c32)C1=O,-3.06
12,O=C(O)CC/C=C\C[C@@H]1CO[C@H](c2ccccc2Cl)O[C@@H]1c1ccccc1O (racemic),-1.11
13,COc1ccc2cc(C(C)C(=O)Oc3ccc(C(N)=S)cc3)ccc2c1 (stereo not shown),-1.47
14,CC(=O)c1c(C)c2cnc(Nc3ccc(N4CCNCC4)cn3)nc2n(C2CCCC2)c1=O,36.4
15,C1CCc2nnnn2CC1,-7.15
16,C[C@]12C=CC(=O)N[C@@H]1CC[C@@H]1[C@@H]2CC[C@]2(C)[C@@H](C(=O)Nc3cc(C(F)(F)F)ccc3C(F)(F)F)CC[C@@H]12,-3.63
17,Clc1ccc2c(N3CCN(CCCN4CCN(c5ccnc6cc(Cl)ccc56)CC4)CC3)ccnc2c1,6.97
18,Cc1ccccc1-n1c(CF)nc2ccc(N)cc2c1=O,-2.2
19,CC(C)(C)c1ccc(S(=O)(=O)/C=C/C#N)cc1,-2.64
20,COc1nccnc1NS(=O)(=O)c1ccc(N)cc1,4.24
21,CC[C@H]1[C@@H](O)C2C3CC[C@H]([C@H](C)CCC(=O)O)[C@@]3(C)CCC2[C@@]2(C)CC[C@@H](O)C[C@@H]12 (stereo partly shown),-3.95
22,CC(N)CCCC(C)(C)O (stereo not shown),-8.75

row,SMILES,result_ITMP [%]
1,N#CCC(=O)NN,-6.26
2,CN1CCCN=C1/C=C/c1cccc(O)c1,4.3
3,CC(C)N(CCCCOCC(=O)NS(C)(=O)=O)c1cnc(-c2ccccc2)c(-c2ccccc2)n1,0.15
4,CCOC(=O)C1CSC(Cc2ccc(OCc3ccc([N+](=O)[O-])cc3)cc2)N1 (stereo not shown),-2.45
5,C#C[C@]1(O)CC[C@H]2[C@@H]3CCC4=CC(=O)CC[C@@H]4[C@H]3C(=C)C[C@@]21CC,-2.77
6,NC(=O)c1ccc(I)c([N+](=O)[O-])c1,3.98
7,c1ccc(-c2oc3ncnc(NC[C@@H]4CCCO4)c3c2-c2ccccc2)cc1,2.58
8,O=C(O)c1cc(/N=N/c2ccc(S(=O)(=O)Nc3ccccn3)cc2)ccc1O,-3.52
9,COCC1(CO)C(=O)C2CCN1CC2 (stereo not shown),-2.09
10,O=C1NC(c2ccccc2)(c2ccccc2)C(=O)N1COP(=O)([O-])[O-],-0.37
11,CCOc1ccc(C(=O)OCCN(CC)CC)cc1,0.82
12,CC1CCN=C(N)S1 (stereo not shown),0.17
13,N#C/C(=C\c1ccc(O)c(O)c1)C(=O)NCCCc1ccccc1,-1.59
14,C/C=C1/[C@H]2C=C(C)C[C@]1(N)c1ccc(=O)[nH]c1C2,-2.16
15,C/C(=C\C(=O)OCCCCCCCCC(=O)O)C[C@@H]1OC[C@H](C[C@@H]2O[C@H]2[C@@H](C)[C@H](C)O)[C@@H](O)[C@H]1O,1.19
16,C[C@]12CCC(=O)C=C1CCC1C2[C@@H](O)C[C@@]2(C)C1CC[C@]2(O)C(=O)CO (stereo partly shown),-6.26
17,CCc1cccc(CC)c1NC(=O)CN(CC(=O)O)CC(=O)O,-4.82
18,Cc1[nH]nc(C(F)(F)F)c1Cc1sc2c(c1C(=O)N1C[C@](C)(O)CO1)c(=O)n(C)c(=O)n2C(C)C,0.28
19,O=c1oc2cc(O)ccc2s1,-11.7
20,C[C@@H]1CC[C@@]2(OC1)O[C@H]1C[C@H]3[C@@H]4CC=C5C[C@@H](O[C@@H]6O[C@H](CO)[C@@H](O[C@@H]7O[C@@H](C)[C@H](O)[C@@H](O)[C@H]7O)[C@H](O)[C@H]6O[C@@H]6O[C@@H](C)[C@H](O)[C@@H](O)[C@H]6O)CC[C@]5(C)[C@H]4CC[C@]3(C)[C@H]1[C@@H]2C,18.9
21,COc1cc2ncnc(Nc3cccc(Cl)c3)c2cc1OC,5.64
22,CCCCc1ccc2[nH]c(NC(=O)OC)nc2c1,-1.87
